# In the supplement of paper PMC8728848:
# The list shows a part of the results.
# B1: RBMC2 (Vibrio cholerae) (protein)
# chain: KISVRSGFAIDAIGASASTLVGGTGGNLNAAVNVKDIKAIDLTWGKYYWGGYHLLALDFRMSNGSVISMGSKNYAYSKQTERFTVPAGSRIKGIKAWTAGWLLDGVQFELA
# Tests used:
# Assay in all cases: glycan array binding signal (z-score within array); higher = stronger binding
# Details in all cases: glycan notation: IUPAC condensed, linker removed
# [1] = molecular target: Fuc(a1-2)[Gal(a1-3)]Gal(b1-4)GlcNAc(b1-2)Man(a1-3)[Fuc(a1-2)[Gal(a1-3)]Gal(b1-4)GlcNAc(b1-2)Man(a1-6)]Man(b1-4)GlcNAc(b1-4)[Fuc(a1-6)]GlcNAc
# Method in brief: (§1)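 Glycan array binding is given as a within-array Z-score, which can be read as non-binding when negative. The arrays, 3228 of them, came from the Consortium for Functional Glycomics database and were retained only where the protein sequence was available. Z-scores were averaged across arrays of the same protein sequence at different concentrations or buffers and across linkers.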
# [2] = molecular target: Fuc(a1-2)[Gal(a1-3)]Gal(b1-4)GlcNAc(b1-3)GalNAc
# Method in brief: as §1
# [3] = molecular target: Fuc(a1-2)[Gal(a1-3)]Gal(b1-4)GlcNAc(b1-3)[Fuc(a1-2)[Gal(a1-3)]Gal(b1-4)GlcNAc(b1-6)]GalNAc
# Method in brief: as §1
# [4] = molecular target: Fuc(a1-2)[Gal(a1-3)]Gal(b1-4)GlcNAc(b1-6)GalNAc
# Method in brief: as §1
# [5] = molecular target: Fuc(a1-2)[Gal(a1-3)]Gal(b1-4)[Fuc(a1-3)]Glc
# Method in brief: as §1
# [6] = molecular target: Fuc(a1-2)[Gal(a1-3)]Gal(b1-4)[Fuc(a1-3)]GlcNAc
# Method in brief: as §1
# [7] = molecular target: Fuc(a1-2)[Gal(a1-3)]Gal(b1-4)[Fuc(a1-3)]GlcNAc(b1-3)GalNAc
# Method in brief: as §1
# [8] = molecular target: Fuc(a1-2)[Gal(a1-4)]Gal(b1-4)GlcNAc
# Method in brief: as §1
# [9] = molecular target: Fuc(a1-2)[GalNAc(a1-3)]Gal
# Method in brief: as §1
# [10] = molecular target: Fuc(a1-2)[GalNAc(a1-3)]Gal(b1-3)GalNAc(a1-3)[Fuc(a1-2)]Gal(b1-4)GlcNAc
# Method in brief: as §1
# [11] = molecular target: Fuc(a1-2)[GalNAc(a1-3)]Gal(b1-3)GalNAc(b1-3)Gal(a1-4)Gal(b1-4)Glc
# Method in brief: as §1
# [12] = molecular target: Fuc(a1-2)[GalNAc(a1-3)]Gal(b1-3)GlcNAc
# Method in brief: as §1
# [13] = molecular target: Fuc(a1-2)[GalNAc(a1-3)]Gal(b1-3)GlcNAc(b1-2)Man(a1-3)[Fuc(a1-2)[GalNAc(a1-3)]Gal(b1-3)GlcNAc(b1-2)Man(a1-6)]Man(b1-4)GlcNAc(b1-4)GlcNAc
# Method in brief: as §1
# [14] = molecular target: Fuc(a1-2)[GalNAc(a1-3)]Gal(b1-3)GlcNAc(b1-2)Man(a1-3)[Fuc(a1-2)[GalNAc(a1-3)]Gal(b1-3)GlcNAc(b1-2)Man(a1-6)]Man(b1-4)GlcNAc(b1-4)[Fuc(a1-6)]GlcNAc
# Method in brief: as §1
# [15] = molecular target: Fuc(a1-2)[GalNAc(a1-3)]Gal(b1-3)GlcNAc(b1-3)GalNAc
# Method in brief: as §1
# [16] = molecular target: Fuc(a1-2)[GalNAc(a1-3)]Gal(b1-3)GlcNAc(b1-6)GalNAc
# Method in brief: as §1
# [17] = molecular target: Fuc(a1-2)[GalNAc(a1-3)]Gal(b1-4)Glc
# Method in brief: as §1
# [18] = molecular target: Fuc(a1-2)[GalNAc(a1-3)]Gal(b1-4)GlcNAc
# Method in brief: as §1
# [19] = molecular target: Fuc(a1-2)[GalNAc(a1-3)]Gal(b1-4)GlcNAc(b1-2)Man
# Method in brief: as §1
# [20] = molecular target: Fuc(a1-2)[GalNAc(a1-3)]Gal(b1-4)GlcNAc(b1-2)Man(a1-3)[Fuc(a1-2)[GalNAc(a1-3)]Gal(b1-4)GlcNAc(b1-2)Man(a1-6)]Man(b1-4)GlcNAc(b1-4)GlcNAc
# Method in brief: as §1
# [21] = molecular target: Fuc(a1-2)[GalNAc(a1-3)]Gal(b1-4)GlcNAc(b1-2)Man(a1-3)[Fuc(a1-2)[GalNAc(a1-3)]Gal(b1-4)GlcNAc(b1-2)Man(a1-6)]Man(b1-4)GlcNAc(b1-4)[Fuc(a1-6)]GlcNAc
# Method in brief: as §1
# [22] = molecular target: Fuc(a1-2)[GalNAc(a1-3)]Gal(b1-4)GlcNAc(b1-3)Gal(b1-4)GlcNAc
# Method in brief: as §1
# [23] = molecular target: Fuc(a1-2)[GalNAc(a1-3)]Gal(b1-4)GlcNAc(b1-3)Gal(b1-4)GlcNAc(b1-3)Gal(b1-4)GlcNAc
# Method in brief: as §1
# [24] = molecular target: Fuc(a1-2)[GalNAc(a1-3)]Gal(b1-4)GlcNAc(b1-3)GalNAc
# Method in brief: as §1
# [25] = molecular target: Fuc(a1-2)[GalNAc(a1-3)]Gal(b1-4)GlcNAc(b1-3)[Fuc(a1-2)[GalNAc(a1-3)]Gal(b1-4)GlcNAc(b1-6)]GalNAc
# Method in brief: as §1
# [26] = molecular target: Fuc(a1-2)[GalNAc(a1-3)]Gal(b1-4)GlcNAc(b1-6)GalNAc
# Method in brief: as §1
# [27] = molecular target: Fuc(a1-2)[GalNAc(a1-3)]Gal(b1-4)[Fuc(a1-3)]GlcNAc
# Method in brief: as §1
# [28] = molecular target: Fuc(a1-2)[GalNAc(a1-3)]Gal(b1-4)[Fuc(a1-3)]GlcNAc(b1-3)GalNAc
# Method in brief: as §1
# [29] = molecular target: Fuc(a1-2)[GalNAc(a1-4)]Gal(b1-4)GlcNAc
# Method in brief: as §1
# [30] = molecular target: Fuc(a1-2)[GalNAc(b1-3)]Gal
# Method in brief: as §1
# Fuc(a1-3)GlcNAc = molecular target: Fuc(a1-3)GlcNAc
# Method in brief: as §1
# [31] = molecular target: Fuc(a1-3)[Gal(b1-4)]Glc6S
# Method in brief: as §1
# [32] = molecular target: Fuc(a1-3)[Gal(b1-4)]GlcNAc
# Method in brief: as §1
# [33] = molecular target: Fuc(a1-3)[Gal(b1-4)]GlcNAc(b1-2)Man
# Method in brief: as §1
# [34] = molecular target: Fuc(a1-3)[Gal(b1-4)]GlcNAc(b1-2)Man(a1-3)[Fuc(a1-3)[Gal(b1-4)]GlcNAc(b1-2)Man(a1-6)]Man(b1-4)GlcNAc(b1-4)GlcNAc
# Method in brief: as §1
# [35] = molecular target: Fuc(a1-3)[Gal(b1-4)]GlcNAc(b1-2)Man(a1-3)[Fuc(a1-3)[Gal(b1-4)]GlcNAc(b1-2)Man(a1-6)]Man(b1-4)GlcNAc(b1-4)[Fuc(a1-6)]GlcNAc
# Method in brief: as §1
# [36] = molecular target: Fuc(a1-3)[Gal(b1-4)]GlcNAc(b1-3)Gal(b1-3)[Fuc(a1-4)]GlcNAc
# Method in brief: as §1
# [37] = molecular target: Fuc(a1-3)[Gal(b1-4)]GlcNAc(b1-3)Gal(b1-4)[Fuc(a1-3)]GlcNAc
# Method in brief: as §1
# [38] = molecular target: Fuc(a1-3)[Gal(b1-4)]GlcNAc(b1-3)Gal(b1-4)[Fuc(a1-3)]GlcNAc(b1-3)Gal(b1-4)[Fuc(a1-3)]GlcNAc
# Method in brief: as §1
# [39] = molecular target: Fuc(a1-3)[Gal(b1-4)]GlcNAc(b1-3)GalNAc
# Method in brief: as §1
# [40] = molecular target: Fuc(a1-3)[Gal(b1-4)]GlcNAc(b1-6)GalNAc
# Method in brief: as §1
# [41] = molecular target: Fuc(a1-3)[Gal(b1-4)]GlcNAc(b1-6)[Gal(b1-3)GlcNAc(b1-3)]Gal(b1-4)Glc
# Method in brief: as §1
# [42] = molecular target: Fuc(a1-3)[Gal(b1-4)]GlcNAc6S
# Method in brief: as §1
# [43] = molecular target: Fuc(a1-3)[Gal3S(b1-4)]Glc
# Method in brief: as §1
# [44] = molecular target: Fuc(a1-3)[Gal3S(b1-4)]GlcNAc
# Method in brief: as §1
# [45] = molecular target: Fuc(a1-3)[Gal3S(b1-4)]GlcNAc6S
# Method in brief: as §1
# [46] = molecular target: Fuc(a1-3)[GalNAc(b1-4)]GlcNAc
# Method in brief: as §1
# [47] = molecular target: Fuc(a1-3)[GalNAc(b1-4)]GlcNAc6S
# Method in brief: as §1
# Fuc(a1-4)GlcNAc = molecular target: Fuc(a1-4)GlcNAc
# Method in brief: as §1
# Fuc(b1-3)GlcNAc = molecular target: Fuc(b1-3)GlcNAc
# Method in brief: as §1
# Gal(a1-2)Gal = molecular target: Gal(a1-2)Gal
# Method in brief: as §1
# Gal(a1-3)Gal = molecular target: Gal(a1-3)Gal
# Method in brief: as §1
# Gal(a1-3)Gal(b1-3)GlcNAc = molecular target: Gal(a1-3)Gal(b1-3)GlcNAc
# Method in brief: as §1
# [48] = molecular target: Gal(a1-3)Gal(b1-3)GlcNAc(b1-2)Man
# Method in brief: as §1
# [49] = molecular target: Gal(a1-3)Gal(b1-3)GlcNAc(b1-2)Man(a1-3)[Gal(a1-3)Gal(b1-3)GlcNAc(b1-2)Man(a1-6)]Man(b1-4)GlcNAc(b1-4)GlcNAc
# Method in brief: as §1
# [50] = molecular target: Gal(a1-3)Gal(b1-3)GlcNAc(b1-3)GalNAc
# Method in brief: as §1
# [51] = molecular target: Gal(a1-3)Gal(b1-3)GlcNAc(b1-6)GalNAc
# Method in brief: as §1
# [52] = molecular target: Gal(a1-3)Gal(b1-3)[Fuc(a1-4)]GlcNAc(b1-2)Man(a1-3)[Gal(a1-3)Gal(b1-3)[Fuc(a1-4)]GlcNAc(b1-2)Man(a1-6)]Man(b1-4)GlcNAc(b1-4)GlcNAc
# Method in brief: as §1
# Gal(a1-3)Gal(b1-4)Glc = molecular target: Gal(a1-3)Gal(b1-4)Glc
# Method in brief: as §1
# Gal(a1-3)Gal(b1-4)GlcNAc = molecular target: Gal(a1-3)Gal(b1-4)GlcNAc
# Method in brief: as §1
binder,measurement,setting,value
B1,glycan array binding signal (z-score),[1],-0.015
same,glycan array binding signal (z-score),[2],-0.249
same,glycan array binding signal (z-score),[3],0.162
same,glycan array binding signal (z-score),[4],-0.369
same,glycan array binding signal (z-score),[5],-0.432
same,glycan array binding signal (z-score),[6],-0.339
same,glycan array binding signal (z-score),[7],-0.301
same,glycan array binding signal (z-score),[8],-0.391
same,glycan array binding signal (z-score),[9],-0.265
same,glycan array binding signal (z-score),[10],-0.357
same,glycan array binding signal (z-score),[11],-0.183
same,glycan array binding signal (z-score),[12],-0.306
same,glycan array binding signal (z-score),[13],-0.316
same,glycan array binding signal (z-score),[14],-0.287
same,glycan array binding signal (z-score),[15],-0.328
same,glycan array binding signal (z-score),[16],-0.361
same,glycan array binding signal (z-score),[17],-0.35
same,glycan array binding signal (z-score),[18],-0.402
same,glycan array binding signal (z-score),[19],-0.44
same,glycan array binding signal (z-score),[20],0.184
same,glycan array binding signal (z-score),[21],-0.035
same,glycan array binding signal (z-score),[22],-0.171
same,glycan array binding signal (z-score),[23],-0.282
same,glycan array binding signal (z-score),[24],-0.327
same,glycan array binding signal (z-score),[25],-0.308
same,glycan array binding signal (z-score),[26],-0.46
same,glycan array binding signal (z-score),[27],-0.4
same,glycan array binding signal (z-score),[28],-0.136
same,glycan array binding signal (z-score),[29],-0.416
same,glycan array binding signal (z-score),[30],-0.141
same,glycan array binding signal (z-score),Fuc(a1-3)GlcNAc,-0.337
same,glycan array binding signal (z-score),[31],0.179
same,glycan array binding signal (z-score),[32],-0.371
same,glycan array binding signal (z-score),[33],-0.24
same,glycan array binding signal (z-score),[34],-0.333
same,glycan array binding signal (z-score),[35],-0.248
same,glycan array binding signal (z-score),[36],-0.373
same,glycan array binding signal (z-score),[37],-0.223
same,glycan array binding signal (z-score),[38],-0.353
same,glycan array binding signal (z-score),[39],-0.318
same,glycan array binding signal (z-score),[40],-0.4
same,glycan array binding signal (z-score),[41],-0.282
same,glycan array binding signal (z-score),[42],0.047
same,glycan array binding signal (z-score),[43],-0.386
same,glycan array binding signal (z-score),[44],-0.407
same,glycan array binding signal (z-score),[45],-0.435
same,glycan array binding signal (z-score),[46],-0.311
same,glycan array binding signal (z-score),[47],-0.377
same,glycan array binding signal (z-score),Fuc(a1-4)GlcNAc,-0.004
same,glycan array binding signal (z-score),Fuc(b1-3)GlcNAc,-0.387
same,glycan array binding signal (z-score),Gal(a1-2)Gal,-0.418
same,glycan array binding signal (z-score),Gal(a1-3)Gal,-0.3
same,glycan array binding signal (z-score),Gal(a1-3)Gal(b1-3)GlcNAc,-0.432
same,glycan array binding signal (z-score),[48],-0.064
same,glycan array binding signal (z-score),[49],0.427
same,glycan array binding signal (z-score),[50],-0.349
same,glycan array binding signal (z-score),[51],-0.252
same,glycan array binding signal (z-score),[52],0.108
same,glycan array binding signal (z-score),Gal(a1-3)Gal(b1-4)Glc,-0.287
same,glycan array binding signal (z-score),Gal(a1-3)Gal(b1-4)GlcNAc,-0.401
